The values below come from ChEMBL document CHEMBL4888484, “Replenishing the malaria drug discovery pipeline: Screening and hit evaluation of the MMV Hit Generation Library 1 (HGL1) against asexual blood stage Plasmodium falciparum ,using a nano luciferase reporter read-out” (2022).

The whole screen tested about 150,000 compounds, of which about 540 (0.36%) showed an effect of 50% or more. The list shows a part of the results.

The subject of this assay is Plasmodium falciparum. Description: Primary screen in NF54 nanoGlo assay, in single point, at 2uM, 72h; a lower Z score goes with more inhibition. Format: functional, Erythrocyte. The note with it: timepoint 72 hour.
As to `CCc1noc([C@H]2CC(=O)N(c3c(C)cc(C)cc3C)C2)n1`, the “% Inhibition” value is -9% and the Z score was 1.74.
On the same counts, the results for `CC(C)[C@H](NS(=O)(=O)CC1CCCC1)c1nccn1C` are 3% and -0.44.
In the case of `CCCc1occc1C(=O)N[C@@H](Cc1ccccc1)c1ncon1`, the “% Inhibition” value came out at 0% and the Z score is -0.01.
On the same counts, the results for `Cc1noc(C)c1[C@@H](C)CNC(=O)c1csc(C)c1C` are -6% and 1.01.
On to `COc1cccnc1NCc1cnc(-c2ccccn2)s1`, for which the “% Inhibition” value was -4% and the Z score came out at 0.42.
On the same counts, the results for `Cn1cnn(CC(=O)N2CCC[C@@H]3COC[C@@H]32)c1=O` are -2% and 0.44.
Taken in the same sequence, the figures for `Cc1cc(C(=O)N2CCCN(Cc3ccc(Cl)cc3)CC2)on1` were -1% and 0.15.
Turning to `Cc1nc(O)nc(C)c1CCC(=O)N[C@H]1CC(=O)Nc2ccccc21`, the “% Inhibition” value was found to be 3% and the Z score was -0.47.
Turning to `COc1ccc(Cl)cc1[C@H](C)NCCS(N)(=O)=O`, the “% Inhibition” value is -9% and the Z score is reported as 1.99.
Taken in the same sequence, the figures for `O=C(Cc1cccs1)NCCc1csc(-n2cccn2)n1` were -3% and 0.45.
Taken in the same sequence, the figures for `COCc1nnc2n1CC1CCC(C2)N1C(=O)CCc1ccc(OC)cc1` (stereo not given) were 2% and -0.28.
On the same counts, the results for `Cc1cc(C(=O)N2CC[C@@]3(CCCN(Cc4cccc(F)c4F)C3=O)C2)n[nH]1` are -17% and 2.14.
For the molecule `COc1ccc(C(=O)Nc2cccc(C3OC(=O)N(Cc4ccc(C)cc4)C3C(=O)NCc3ccco3)c2)cc1` (stereo not given), the “% Inhibition” value is reported as -19% and the Z score is 1.87.
Taken in the same sequence, the figures for `CCc1nccn1CCCNC(=O)[C@H](C)Nc1ncnc2ccc(C)cc12` were 0% and -0.04.
Taken in the same sequence, the figures for `COc1cccc(CNCc2ccco2)c1OCc1ccccc1F` were 3% and -0.56.
Turning to `Cc1ccc(C)c(NC(=O)NC2CCOC3(CCOC3)C2)c1` (stereo not given), the “% Inhibition” value was 2% and the Z score is -0.27.
With `CCN1CCC(N[C@@H](C)c2cnc(N3CCCCCCC3)nc2C)CC1`, the “% Inhibition” value was -6% and the Z score is recorded as 1.01.
Taken in the same sequence, the figures for `Cc1cc(Cl)c(C(=O)NC[C@@H](C)CCO)cc1C` were 8% and -1.05.
Taken in the same sequence, the figures for `CC(=O)N1CCCN(C(=O)CCc2c(C)nn(C)c2C)CC1` were -14% and 1.22.
As to `CC(=O)Nc1nn(CC(F)(F)F)cc1Cl`, the “% Inhibition” value was determined as 30% and the Z score is given as -3.35.
As to `CCOC(C)(C)C(=O)NCC[C@H]1CCCOC1`, the “% Inhibition” value is reported as -15% and the Z score amounted to 1.41.
On the same counts, the results for `Cc1cc(C(=O)Cn2cnc3c2c(=O)n(C)c(=O)n3C)c(C)[nH]1` are -9% and 1.68.
On the same counts, the results for `COc1ccccc1C(=O)Nc1ccc(N(C)C)c(CN(C(=O)C(C)(C)C)[C@@H](C)c2ccccc2)c1` are 18% and -2.54.
Taken in the same sequence, the figures for `O=C(NCCOC1CCCCCC1)c1cn([C@H]2CC[C@@H]2O)nn1` were -14% and 1.93.
With `O=C(Nc1c2c(nn1-c1ccc(Cl)cc1)CCC2)C1=COCCO1`, the “% Inhibition” value is listed as -2% and the Z score is recorded as 0.27.
As for `COc1ccc(OC)c(-c2nc3cc4c(cc3cc2CN2CCCOCC2)OCO4)c1`, the “% Inhibition” value is recorded as -6% and the Z score was 1.13.
As for `O=C(O)c1ccccc1C(=O)N1CC[C@H]2COC(=O)N2c2cc(F)ccc2C1`, the “% Inhibition” value is given as -3% and the Z score stood at 0.45.
Turning to `CCCC(=O)Nc1nn(Cc2ccccc2)c2cccc(N3CCOCC3)c12`, the “% Inhibition” value is -11% and the Z score was 1.35.
Turning to `O=C(c1cnn2c(C(F)(F)F)cc(-c3cccs3)nc12)N1CCC[C@H]1c1cccs1`, the “% Inhibition” value is on record as -16% and the Z score is listed as 3.1.
`C[C@H](NS(=O)(=O)c1ccc2c(c1)OCCCO2)C(=O)Nc1ccc(C(C)(C)C)cc1`: the “% Inhibition” value is on record as 18% and the Z score is on record as -1.87.
As to `Nc1ccnc(-c2cc(O)cc(CC[C@H]3CCCCN3)c2)n1`, the “% Inhibition” value is -3% and the Z score was determined as 0.57.
Regarding `CC[C@H](C)c1cc(C(=O)NCc2nc(CN3CCCCC3)no2)on1`, the “% Inhibition” value came out at 2% and the Z score was -0.28.
Taken in the same sequence, the figures for `Cc1cc(C)c(S(=O)(=O)N2CCC[C@@H]2C(=O)NCCc2csc(C)n2)c(C)c1` were 0% and -0.07.
Taken in the same sequence, the figures for `OCc1nc2cc(-n3ccnc3-c3ccc(-n4ccnc4)cc3)ccc2[nH]1` were -3% and 0.43.
Turning to `COCc1cc(N[C@H]2CN(C(=O)C3CCCC3)C[C@@H]2C(C)C)ncn1`, the “% Inhibition” value is recorded as -8% and the Z score stood at 1.39.
Taken in the same sequence, the figures for `CC(C)[C@H](O)C(=O)N1CCC2(CCC(=O)N(CCc3ccncc3)C2)CC1` were 5% and -0.66.
With `COc1cc(S(=O)(=O)N2CC3(CC3)c3ccccc32)ccc1C(=O)O`, the “% Inhibition” value is recorded as -6% and the Z score was found to be 1.18.
Taken in the same sequence, the figures for `O=C(Nc1nncs1)N1CCC[C@@H]1Cc1c(F)cccc1Cl` were -14% and 2.49.
Taken in the same sequence, the figures for `Cc1cc(F)ccc1CN1CCn2nc(CNc3ncccn3)cc2C1` were 5% and -1.01.
In the case of `COc1ccccc1C(=O)N1CCOc2ccc(CN3CCCC3)cc2C1`, the “% Inhibition” value is reported as -5% and the Z score is 0.88.
Regarding `Cc1nc(C)n(C2CN(c3ccc(C(F)(F)F)c(C#N)n3)C2)n1`, the “% Inhibition” value is -20% and the Z score is listed as 3.84.
On to `O=C(NCCc1ccccc1)C1Cc2cc(C(F)(F)F)ccc2N2CCN(CCOc3ccccc3)CC12` (stereo not given), for which the “% Inhibition” value was determined as 4% and the Z score is -0.54.
In the case of `COc1ccc(CN(Cc2cc3n(n2)CCCC3)[C@H]2CCS(=O)(=O)C2)cc1`, the “% Inhibition” value is -14% and the Z score is reported as 2.74.
With `O=C1CCCC(=O)N1Cc1ccc(C(F)(F)F)c(F)c1`, the “% Inhibition” value is on record as -8% and the Z score is on record as 0.92.
Taken in the same sequence, the figures for `OCC(CO)N1CCc2onc(-c3ccc4c(c3)OCO4)c2C1` were -16% and 2.97.
Turning to `CCNc1n[nH]c(N)c1-c1nc(-c2ccc(Cl)cc2)no1`, the “% Inhibition” value is -5% and the Z score was determined as 0.48.
As for `N#Cc1ccc(OCCNC(=O)Nc2cccnc2)cc1`, the “% Inhibition” value is given as -5% and the Z score is listed as 0.83.
On the same counts, the results for `O=C(Nc1ccnn1Cc1ccccc1Cl)c1cc(O)nc2ccccc12` are -3% and 0.52.
With `Cc1nn(Cc2cccc(C(=O)Nc3nc4ccccc4n3Cc3ccccc3)c2)c(C)c1Cl`, the “% Inhibition” value turned out to be 7% and the Z score is given as -0.98.
Taken in the same sequence, the figures for `CCn1cc([C@H]2OCC[C@@H]2CN2CCC3(CCc4ccccc4C3=O)CC2)cn1` were 1% and -0.08.
Regarding `Cc1noc(C)c1C(=O)NC[C@H]1CCOC1`, the “% Inhibition” value is -4% and the Z score came to 0.54.
Regarding `Cc1cnc(N2CCC[C@H](O)CC2)nc1N(C)C`, the “% Inhibition” value is on record as -3% and the Z score amounted to 0.63.
Turning to `Cc1cccnc1CN(C)Cc1ncc(Cl)n1C`, the “% Inhibition” value is 23% and the Z score is -2.35.
As for `COc1ccc(C(=O)N2CCC[C@H]2C(=O)N[C@H]2CC[C@H](NC(=O)c3ccccc3)CC2)cc1`, the “% Inhibition” value is on record as -7% and the Z score is 0.89.
With `Cc1cc(C)cc(N(CC(=O)Nc2ccc3c(c2)n(C)c(=O)n3C)S(C)(=O)=O)c1`, the “% Inhibition” value was 28% and the Z score is -3.18.
Taken in the same sequence, the figures for `N#Cc1ccc(NCCCOc2ccc(F)cc2)cc1` were -10% and 1.27.
Taken in the same sequence, the figures for `O=C(NCc1cccnc1)c1cn(Cc2cccc3ccccc23)nn1` were -8% and 1.05.
Taken in the same sequence, the figures for `COCCNC(=O)CCc1c(-c2ccc(C)cc2)nc2ccc(-c3cccc(C)c3)cn12` were -8% and 1.24.
Consider `CN(C)C1(CNCc2cccc(O)c2Cl)CCCCC1`, for which the “% Inhibition” value was -21% and the Z score was determined as 2.7.
Taken in the same sequence, the figures for `COCCC[C@H]1CCCCN1Cc1cc(CC(C)C)[nH]n1` were -12% and 1.59.
With `Cn1cc(S(=O)(=O)NC[C@@H](c2ccco2)n2cccn2)cn1`, the “% Inhibition” value came to 0% and the Z score is listed as 0.03.
For `CN(CC1CCCC1)c1cncc(-n2cccn2)n1`, the “% Inhibition” value is -4% and the Z score was 0.52.
On the same counts, the results for `O=C(C1CCCCC1)N1CC(OCc2cccc(F)c2)C1` are -8% and 1.41.
`Cc1n[nH]c(C)c1CNC(=O)c1ccc(-n2cnnc2)nc1`: the “% Inhibition” value is on record as -4% and the Z score is given as 0.57.
On the same counts, the results for `C1C[C@H](Nc2nnc(C3CC3)s2)C2(C1)CCOCC2` are -2% and 0.24.
As to `C[C@@H](c1ncc(C(C)(C)C)o1)N1CCc2c(ncn(C)c2=O)C1`, the “% Inhibition” value is given as 1% and the Z score is on record as -0.11.
Consider `CC1CN(Cc2nc(-c3ccco3)no2)C(C)CO1` (stereo not given), for which the “% Inhibition” value is recorded as -10% and the Z score amounted to 1.26.
On the same counts, the results for `CC[C@H](Nc1cc(OC)ncn1)c1cnn(C)c1` are -21% and 2.07.
Taken in the same sequence, the figures for `CC[C@]1(CO)CCCN1C(=O)Nc1ccc(C(C)(C)C)nn1` were -10% and 1.02.
In the case of `CCc1ncnc(N2CCN(c3ncnc4sccc34)CC2)c1F`, the “% Inhibition” value is reported as -3% and the Z score worked out at 0.25.
On the same counts, the results for `Fc1cccc(Br)c1CN1CCc2[nH]ncc2C1` are -14% and 1.57.
For `Cc1nc(N)nn1C(=O)CCC(=O)c1ccc2c(c1)OCCO2`, the “% Inhibition” value was 6% and the Z score was -1.17.
Consider `Cc1ccc(S(=O)(=O)NCC2CCC(C(=O)O)CC2)cc1` (stereo not given), for which the “% Inhibition” value is reported as -6% and the Z score is given as 0.79.
On the same counts, the results for `Cc1cc(C)n(CC(=O)N2CCN3C(=O)OC[C@H]3C2)n1` are -4% and 0.74.
With `COc1cccnc1CC(=O)N1CCc2nc[nH]c2[C@H]1c1cccnc1`, the “% Inhibition” value is recorded as -2% and the Z score is 0.47.
Turning to `Cn1c(-c2n[nH]c3c2CCCC3)nnc1N1CCNC(=O)CC1`, the “% Inhibition” value was -12% and the Z score was 1.64.
In the case of `COCCN1C(=O)C[S@+]([O-])C12CCN(C(=O)NCCc1ccccc1)CC2`, the “% Inhibition” value is reported as -9% and the Z score was determined as 1.71.
In the case of `CCc1nn(C)c(Cl)c1CN(CC)[C@H]1COC[C@@H]1O`, the “% Inhibition” value worked out at 0% and the Z score is given as -0.09.
Turning to `CN(CCC1CCCC1)S(C)(=O)=O`, the “% Inhibition” value is listed as -6% and the Z score is on record as 0.83.
For the molecule `O=C1NCCCC[C@@H]1Nc1ccc2c(c1)OCCO2`, the “% Inhibition” value is listed as 6% and the Z score is recorded as -0.95.
In the case of `O=C(CC1CCCC1)NC1CCN(C(=O)c2c[nH]c3cc(F)ccc23)CC1`, the “% Inhibition” value stood at 3% and the Z score is recorded as -0.48.
Taken in the same sequence, the figures for `O=C(N[C@H]1CC[C@@H](C(=O)Nc2ccc3c(c2)CCC3)C1)c1cc(C2CC2)no1` were 1% and -0.17.
On the same counts, the results for `Cn1nccc1CCC(=O)N1CCOCC1C1CCCCC1=O` (stereo not given) are 8% and -1.15.
On the same counts, the results for `Cc1n[nH]c([C@H]2CCCN(CCOCc3ccccc3)C2)n1` are -13% and 2.34.
For `COc1ccc(C2CC(=O)N(c3ccc4c(c3)OCCO4)C(=O)C2)cc1OC`, the “% Inhibition” value is 1% and the Z score was -0.13.

The % Inhibition is the change of the read-out against control, counted positive when it falls.
